Measured values published in the supplement of paper PMC12217912.
The list shows a part of the results. The full chains were built here from the parent and the listed change. Inactive controls read about 0.05.

B1: TEV protease; numbered along this chain (parent)
chain: MGESLFKGPRDYNPISSSICHLTNESDGHTTSLYGIGFGPFIITNKHLFRRNNGTLVVQSLHGVFKVKDTTTLQQHLVDGRDMIIIRMPKDFPPFPQKLKFREPQREERICLVTTNFQTKSMSSMVSDTSCTFPSGDGIFWKHWIQTKDGQCGSPLVSTRDGFIVGIHSASNFTNTNNYFTSVPKNFMELLTNQEAQQWVSGWRLNADSVLWGGHKVFMVKPEEPFQPVKEATQL

Variants of: B1
Assay: raw area under fraction-flipped curve 0-4 h after induction (AUC4h, not background-subtracted), DNA-recorder readout of cleavage of the substrate (dimensionless); higher = more cleavage of the substrate by the protease variant
Conditions: temperature: 34 °C; time window: 0-4 h after rhamnose induction
Procedure: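 In vivo DNA recorder in E. coli TOP10(DE3) ΔrhaA at 34 °C. Each TEVp single-site mutant (parent TEVp 0) is paired with a single-site variant of the 7-mer TEVs (canonical ENLYFQ|S). The substrate sits between flexible linkers in a Bxb1-sfGFP-TEVs-SsrA fusion, so cleavage stabilises Bxb1 and speeds flipping of a recombination array, read by NGS. The value is the raw area under the fraction-flipped curve over 0-4 h after rhamnose induction (AUC4h), with ≥20 reads per time point. It is not background-subtracted; inactive controls average about 0.047.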
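Further: Bxb1 expression induced with 0.2% (w/v) L-rhamnose at OD600 near 0.5, cultures sampled hourly, flipped fraction per protease–substrate barcode pair counted by paired-end Illumina sequencing.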

Variant	area with substrate ENLYFAS	area with substrate ENLYFCS	area with substrate ENLYFDS	area with substrate ENLYFES	area with substrate ENLYFFS	area with substrate ENLYFGS	area with substrate ENLYFHS	area with substrate ENLYFIS	area with substrate ENLYFKS	area with substrate ENLYFLS	area with substrate ENLYFMS	area with substrate ENLYFNS	area with substrate ENLYFPS	area with substrate ENLYFSS	area with substrate ENLYFTS	area with substrate ENLYFVS	area with substrate ENLYFWS	area with substrate ENLYFRS	area with substrate ENLYFYS
I43L	0.0582	0.0442	0.0438	0.0578	0.0606	0.0481	0.0599	0.0586	0.055	0.064	0.0593	0.0545	0.0587	0.0407	0.0558	0.053	0.0558	–	–
I43A	0.0512	0.0408	–	0.0402	0.0644	0.0542	0.0678	0.059	–	0.0492	0.0592	0.0543	0.0559	0.0529	0.0586	0.0596	0.0361	0.0603	–
I43Q	0.0309	0.0339	0.0421	0.0464	0.0555	0.0508	0.0448	0.0467	0.0572	–	0.0424	0.0278	0.042	0.0541	0.0453	0.0444	0.056	0.0488	0.0369
I43N	0.0516	0.0405	–	0.0578	0.0543	0.0386	0.0339	0.0375	0.0639	–	0.0406	–	–	0.0319	0.0437	0.0345	0.0292	0.0526	0.0257
R50P	0.0506	0.0639	0.0687	0.0675	0.0722	0.0595	0.0645	0.0445	0.0661	–	0.0603	0.0603	0.0547	0.056	0.0729	0.0761	0.0617	–	0.0607
R50H	0.0659	0.065	0.0625	–	0.0309	0.0635	0.0766	0.0639	–	–	0.0662	–	–	–	0.0623	0.0553	0.0636	0.0598	–
L33I	0.128	0.0732	0.0626	0.0606	0.0761	0.0481	0.0571	0.0553	0.0618	0.0627	–	0.0495	0.0586	0.0642	–	0.0529	0.0642	0.0612	0.0399
L33M	0.0542	0.0609	0.0587	0.0722	0.0749	–	0.0714	0.058	0.0672	0.061	0.0654	0.0637	0.0637	0.056	0.0376	–	0.0625	0.0676	–
T30Y	0.0636	0.0657	0.0514	0.0688	–	0.0361	0.06	0.0623	0.0476	0.0355	0.0496	0.073	0.0575	–	0.0536	–	0.0615	0.0681	0.0543
T30L	0.0501	0.0595	0.053	0.0558	0.0707	–	–	0.0634	–	0.0658	0.0597	0.0499	0.066	0.0616	0.0421	0.0685	0.0597	0.0385	0.0497
F41I	0.0539	0.0539	0.0358	0.0667	0.0743	0.0566	0.0597	0.061	0.0625	–	0.0542	–	0.0572	0.0656	0.0602	0.0402	0.0487	0.0655	0.0509
F49I	0.0324	0.06	0.0668	0.0582	0.0672	0.0412	0.0489	0.0562	–	–	0.0615	0.0387	0.0399	0.0473	–	0.0633	–	0.059	–
F49A	0.0569	0.0465	0.051	0.0606	0.0636	–	0.0822	0.0581	0.0552	0.0575	–	0.0656	0.0505	–	0.0595	–	0.0594	0.0666	–
F49M	0.0483	0.0541	0.0495	0.0537	0.0585	0.0504	0.0469	0.0582	0.0634	0.0569	0.0514	0.058	0.059	0.0677	0.0553	0.0483	0.0643	0.0622	0.0465
N45T	0.0644	0.0595	0.0596	0.0627	0.0688	–	0.0475	0.0592	0.0575	0.0622	0.0511	0.0536	0.0634	0.0667	0.0639	0.0493	0.0585	0.0663	0.0671
I42F	0.0454	–	–	0.0529	0.0586	0.0372	–	0.0398	0.0179	0.0427	0.0508	–	0.0295	–	0.0525	0.0621	0.0434	–	–
I42L	0.0543	–	0.06	0.0497	0.0572	0.0504	0.0616	0.0541	–	0.0497	0.0646	–	0.0415	0.0594	0.0595	0.0744	–	0.0614	–
I42R	0.037	0.042	–	0.0487	0.033	–	0.0552	0.0414	0.0498	–	0.0529	0.0537	0.0423	0.04	0.0591	–	0.0396	0.0454	–
G37I	0.0693	0.0487	0.0543	0.0541	0.0539	0.041	0.0599	0.052	–	–	0.0525	0.0569	0.0638	0.0543	0.0556	0.0631	0.0507	0.0663	–
G37T	0.0464	–	0.0598	0.0615	–	–	0.0418	0.0479	0.0493	–	0.0597	0.046	0.0645	–	0.0454	–	0.0346	0.0557	0.056
N52C	0.0676	–	0.0661	0.0671	0.0663	–	0.0528	0.0514	0.0715	0.058	0.0617	0.052	0.0517	–	0.0568	0.0606	0.0474	0.0549	–
T44P	0.0412	0.0297	0.0419	0.0317	0.0617	0.0457	0.0376	0.0419	0.0453	0.0533	0.0402	0.037	0.0461	0.0194	0.0459	0.0437	0.034	0.0361	–
T44S	0.0491	0.0468	–	0.0496	0.0713	0.0664	0.0583	0.0554	–	–	0.0804	0.0515	0.0631	–	0.0559	0.0515	–	0.0836	0.0551
